Values marked as one replicate rest on one cluster of the flow cell; about a third of the high ones do not repeat.
Each sequence was assayed on ATP (assay: switch fluorescence ratio, 500 uM ATP over buffer (Cy3 cluster intensity, sum of 5 cycles each) (fold (ratio)); higher = stronger signal-on switching upon ATP binding; sequences stand for … in TCGTCGGCAGCGTCAGATGTGTATAAGAGACAGTTTTTTTTTTTTTTTTTTTTTTTTT…TC). Settings: aptamer strand: ATP DNA aptamer (quencher-CACCTGGGGGAGTATTGCGGAGGAAGG + anchor), 100 nM annealed; ATP concentration: 500 uM; one replicate.
In short: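 Cy3-labelled switching-strand clusters on a modified Illumina MiSeq flow-cell were annealed to 100 nM quencher-labelled ATP aptamer, imaged in selection buffer, then imaged after 15 min with 500 uM ATP at 22 °C. Five buffer/ATP cycles ran, with NaOH stripping and re-annealing between them. The fluorescence ratio is summed target-cycle over summed buffer-cycle Cy3 intensity per cluster, averaged per switch-domain sequence. Clusters outside 100-1000 RFU were excluded.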
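Note: ATP exposure 15 min at 22 °C before imaging.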

| Sequence | switch fluorescence ratio |
| --- | --- |
| ATAATGACCC | 1.01 |
| ATAATGCACC | 1.08 |
| ATAATGCCGG | 0.998 |
| ATAATGGGAT | 0.975 |
| ATAATTCAAA | 1.02 |
| ATAATTGTAT | 1.13 |
| ATAATTTGGA | 1.01 |
| ATACAAGAGG | 0.992 |
| ATACAATTAG | 1 |
| ATACACCTTT | 1.38 |
| ATACAGCCCA | 1.05 |
| ATACAGTCGT | 1.02 |
| ATACAGTGAG | 0.981 |
| ATACATATGG | 1.05 |
| ATACCCGTTA | 0.992 |
| ATACCCGTTT | 1.02 |
| ATACCGATAA | 1.07 |
| ATACCGCTGC | 1.59 |
| ATACCTTATT | 1.02 |
| ATACGAATAG | 1.03 |
| ATACGAGGGT | 1.03 |
| ATACGGAAAG | 1 |
| ATACGGCAGG | 1.05 |
| ATACGGCTTG | 1.01 |
| ATACGGTACG | 1.03 |

| Sequence | switch fluorescence ratio |
| --- | --- |
| ATACGTGAAG | 1.02 |
| ATACTCCAAT | 1.13 |
| ATACTCGCGC | 1.19 |
| ATACTGGTTA | 1.02 |
| ATACTGTAAC | 1.22 |
| ATACTGTATA | 1.17 |
| ATACTTTACA | 1.25 |
| ATAGAAACCT | 3.52 |
| ATAGACTTGT | 0.995 |
| ATAGATATTG | 1.01 |
| ATAGATCAAA | 0.99 |
| ATAGATCCA | 1.01 |
| ATAGATCGTG | 0.974 |
| ATAGCAAA | 1.69 |
| ATAGCACGGT | 1.11 |
| ATAGCCGGTC | 1.1 |
| ATAGCGGGGT | 0.96 |
| ATAGCGGTCA | 0.965 |
| ATAGCTACAG | 1.03 |
| ATAGCTATCA | 0.966 |
| ATAGCTCTGT | 0.971 |
| ATAGCTTGTT | 0.985 |
| ATAGCTTTTT | 0.978 |
| ATAGGAAACG | 0.944 |
| ATAGGAAATG | 0.992 |

| Sequence | switch fluorescence ratio |
| --- | --- |
| ATAGGAGCTT | 1 |
| ATAGGATGGG | 0.919 |
| ATAGGATTAC | 1.17 |
| ATAGGCAGAC | 1.13 |
| ATAGGCTGCT | 0.965 |
| ATAGGCTTAC | 1.23 |
| ATAGGCTTAG | 0.952 |
| ATAGGGAAGG | 0.94 |
| ATAGGGATC | 1.02 |
| ATAGGGCTGA | 0.985 |
| ATAGGGGACT | 1.01 |
| ATAGGGTGAG | 1.03 |
| ATAGGTATAC | 1.06 |
| ATAGGTGGG | 0.987 |
| ATAGTAAAGT | 1.02 |
| ATAGTAGCAC | 1.01 |
| ATAGTCACTT | 1.02 |
| ATAGTCGTAA | 1 |
| ATAGTCTGGG | 0.985 |
| ATAGTGGCTG | 0.977 |
| ATAGTTAGCC | 0.991 |
| ATAGTTTGCA | 0.971 |
| ATAGTTTGGG | 0.957 |
| ATATAAATCC | 1.01 |
| ATATACCCGA | 0.989 |

| Sequence | switch fluorescence ratio |
| --- | --- |
| ATATACCGGC | 0.988 |
| ATATACGGCG | 1.02 |
| ATATACGTTA | 1.16 |
| ATATACTCGC | 1.21 |
| ATATAGACGT | 1.03 |
| ATATATCATC | 0.973 |
| ATATATTGTG | 1.02 |
| ATATATTTGA | 1.03 |
| ATATCAAATC | 1 |
| ATATCAGCA | 0.955 |
| ATATCAGTCA | 0.963 |
| ATATCAGTTA | 0.975 |
| ATATCCAGAA | 0.987 |
| ATATCGGACC | 1.06 |
| ATATCGGCTA | 1 |
| ATATCTATAC | 1.12 |
| ATATCTATCT | 0.996 |
| ATATCTCCG | 1.19 |
| ATATGAATCA | 0.976 |
| ATATGGCTTG | 1.01 |
| ATATGGGATA | 1.01 |
| ATATGGTCT | 1.01 |
| ATATGTAAGT | 0.963 |
| ATATGTCTAA | 1.02 |
| ATATTAATTA | 0.97 |
